Consider one molecule from patent publication US20090130676A1 (GENERAL HOSPITAL, published 2009).

The assay has as its target T1, TrxA-peptide 3 (E. coli, UniProt P0AA25 1-33 = thioredoxin; P0AA25 36-109 = thioredoxin, limits assumed).
T1 construct: Insert of the library plasmid moved into pAL-TrxA and expressed in E. coli
The assay can be described thus: coprecipitation from bacterial extract with Gst beads, Western blot with anti-TrxA antibody. (A western blot detects proteins with antibodies after separation by electrophoresis.)

B1: Gst (enzyme)
chain: not shown
notes: also called Gst beads
For the molecule B1, the binding result was “no binding”.
